# Source: article PMC12136788
# The other results are listed elsewhere or left out.
# T1: UNK ZnF1-6 (called full-length) (human, UniProt Q9C0B0 30-357)
# T1 sequence: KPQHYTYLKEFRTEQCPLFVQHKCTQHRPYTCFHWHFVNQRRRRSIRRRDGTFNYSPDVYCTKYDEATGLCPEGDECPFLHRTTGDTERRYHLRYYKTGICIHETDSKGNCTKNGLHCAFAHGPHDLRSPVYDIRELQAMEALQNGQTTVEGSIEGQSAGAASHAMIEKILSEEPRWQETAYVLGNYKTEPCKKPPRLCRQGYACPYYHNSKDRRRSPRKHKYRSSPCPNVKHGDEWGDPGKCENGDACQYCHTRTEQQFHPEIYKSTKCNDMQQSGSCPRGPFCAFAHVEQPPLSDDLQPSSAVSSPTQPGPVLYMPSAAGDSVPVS
# B1: chr21:25606471:25606579:-|CDS|ENSG00000154719|unk|total|mutant (ssRNA)
# RNA: GGGAGUUCUACAGUCCGACGAUCUGAUCUCUUUAAUAAAGAGAAAGCCAGGCAGUUAUCAUUAACUCCCCGAACUGAGAAGACCGAAGUUAAGCAUGUUGGGAAAACUGACCCCGGUACUGUCUUCGUGAUGAAUAAAAACAUCAACAGAGGAUUGAGCAUCA
# B2: chr3:179570125:179570235:+|CDS|ENSG00000136518|unk|FALSE|unique (ssRNA)
# RNA: GGGAGUUCUACAGUCCGACGAUCAAGCACAUUAAUGGAAAUAGAUGGCGAUAAAGGCAAACAAGGCGGUCCCACCUACUACAUAGAUACUAAUGCUCUGCGUGUUCCGAGGGAGAAUAUGGAGGCCAUUUCACCUCUAAAAAACAACAGAGGAUUGAGCAUCA
# B3: chr17:5384886:5384987:+|3pUTR|ENSG00000029725|unk|FALSE|unique (ssRNA)
# RNA: GGGAGUUCUACAGUCCGACGAUCGGUUUAAGACUAGUCCCUUGGAUAAGCCCCAAGCGAAUUUGUCUUCAGAUUAUUAAAAUUAGUGCUGUAAAUCAGGGUGGGCAAUUCACAGCCUUUCUGAACUGACUGAACUAGAGCUUGCAACAGAGGAUUGAGCAUCA
# B4: chr12:39618871:39619093:-|CDS|ENSG00000173208|unk|FALSE|unique (ssRNA)
# RNA: GGGAGUUCUACAGUCCGACGAUCUAUUAUGAUGUUCUCCCAAUCUGUGGCUCACUUGUAUUCCAAUCUGACCAAACCUAUUUUAGAUGUAAUGCUGACCUCCUAUACACUCAUUCAAACUGCUACAUCCAGAGGAGCAAGCCCCAACAGAGGAUUGAGCAUCA
# B5: chr11:119418913:119419014:-|3pUTR|ENSG00000154096|msi1|total|mutant (ssRNA)
# RNA: GGGAGUUCUACAGUCCGACGAUCAUCGGGACCAGAAACCUGGGAGAGACUUGGAUGAGGAGUGGUUGGGCUGUGCCUGGGCCCCGCACGGACAUGGUCUGUCCUGACAGCACUCCUCGGCAGGCAUGGCUGGUGCCUGAAGACCAACAGAGGAUUGAGCAUCA
# B6: ENSG00000107863:be:win_1701|CDS|ENSG00000107863|bound_else_gene|NA|bound_elsewhere_windowed (ssRNA)
# RNA: GGGAGUUCUACAGUCCGACGAUCUGAUAACAGGCGAAUGAGUGGUAGAGGAGUGGGAUCUGUGUCGCAGUUUAAAAAAAUUCCACCAGAUCUAAAAACAUUGCAGUCAAACAGAAAUUUUCAGACUACUUGUGGAAUGUCACUCAACAGAGGAUUGAGCAUCA
# B7: ENSG00000139233:stop:overlap|stop_codon|ENSG00000139233|stop_codon|NA|stop_codon (ssRNA)
# RNA: GGGAGUUCUACAGUCCGACGAUCAGAAAAGAAAGGGGAAAAGCAAAGCAAAAGCAGUGAAAGUGGCAAAGGGUUUGGCCUGGUAGACUCUUAAAACCUUGGAAAAUGCCACAUGGGAUAGAUGACGGAUUAGAAUGUAUACACCAACAGAGGAUUGAGCAUCA
# B8: chr19:12875797:12875908:-|3pUTR|ENSG00000105612|unk|FALSE|unique (ssRNA)
# RNA: GGGAGUUCUACAGUCCGACGAUCUUCGAGACCAGCCUGGGCUACAUAGUGAGACCACAUCUCUACUAGAACUUAAAAAAAGUUAGCCAGGCACGGUGAUAAAUGCCUGUAGUCCCAGCCACUGAAGCCAGAGGAUCGAUUGAACAACAGAGGAUUGAGCAUCA
# B9: ENSG00000070961:be:win_4351|3pUTR|ENSG00000070961|bound_else_gene|NA|bound_elsewhere_windowed (ssRNA)
# RNA: GGGAGUUCUACAGUCCGACGAUCGAAAAAAACAAAACAAAACAAAAAAACAUGAGCAGUGGUGUUCUAAUGAAGUUAUGACAUCUGUCCUAAUUAGUUUCUUAAAUACAUUUACUACUUAAUGGUUUUGAAGCAACUGUUUAACAACAGAGGAUUGAGCAUCA
# B10: chr11:118751385:118751486:-|3pUTR|ENSG00000110367|msi1|total|mutant (ssRNA)
# RNA: GGGAGUUCUACAGUCCGACGAUCUUGAAGUCUCUUCCCUUUCUACCCAGUACUCGAGCCCAGGGCCCGAAGUUGAAACUCACCCGUAAUGUUAAACACCAUUUUUUUUUUCUUUUUGGGGAGGAGUUGAUAUGCAACUGCAGUCAACAGAGGAUUGAGCAUCA
# B11: chr11:43494716:43494817:+|3pUTR|ENSG00000052841|unk|total|mutant (ssRNA)
# RNA: GGGAGUUCUACAGUCCGACGAUCGUUACCCAUCUUGGAAUAAGUUGUGAAUGUCAGCUCCCUCUCUCUGAGGCCUCCAGACUCCGCUCCUCAGGAGGGUAAUGAGCCAAGGUUGAGUGUUUCCAUACAAUGCUUUUACCUUUGCAACAGAGGAUUGAGCAUCA
# B12: chr21:36416827:36416928:+|3pUTR|ENSG00000159259|unk|FALSE|unique (ssRNA)
# RNA: GGGAGUUCUACAGUCCGACGAUCAACUUUGGAAGGUAGUUGUGUUUGUUUUCUGAUUUUAAAGGUGACGAUGCUUAUUCUUUUAGUAACUAAGUGAAGUGAAAAAGAUGGGUAUCACCCAUCAUCUUCCCACCAGAAGUAACCCAACAGAGGAUUGAGCAUCA
# B13: ENSG00000100485:stop:overlap|stop_codon|ENSG00000100485|stop_codon|NA|stop_codon (ssRNA)
# RNA: GGGAGUUCUACAGUCCGACGAUCAUAUAUAUACACAUAUAUAUACACACACACACACAUUUUAUGUGUCAGUUUUCAAUAUAUAGUUAACACAAAAGCUCUCAGCUUUUAAUUCAAAUAUAGGGAAUAUUUUUAACUUCACAGCAACAGAGGAUUGAGCAUCA
# B14: chr20:58360308:58360409:+|3pUTR|ENSG00000124209|msi1|FALSE|unique (ssRNA)
# RNA: GGGAGUUCUACAGUCCGACGAUCCAUUGAACAUGUUAGCCUAGGAUACGUACAGUAAAUUAACAAUGAUAGCAGCAGAUGCCUAGCUCAUCCUGGGUUUGCUUCUGACCUUGUCAUGUGUGUGCCACCAAACACGUUAUUGGCCAACAGAGGAUUGAGCAUCA
# B15: chr9:121180810:121180911:-|3pUTR|ENSG00000119396|msi1|FALSE|unique (ssRNA)
# RNA: GGGAGUUCUACAGUCCGACGAUCUUUGGAUAAAUUUCCUGUUGUGUGGGUGGCAUUUUUCUUAACGAGAUUUGCUUCUGUCUUAGCCUCACACAGGGAAAAUAUCCAUUUAUCUUCUCUCUCGUGCUUAAUUAAUAGCUUUAUCAACAGAGGAUUGAGCAUCA
# B16: chr9:15474029:15474130:-|CDS|ENSG00000164985|unk|FALSE|unique (ssRNA)
# RNA: GGGAGUUCUACAGUCCGACGAUCAAGAAAAGAGCCGGAUAAAAAAGAGGGGAAGAAAGAAGUUGAAUCAAAAAGGAAAAAUUUAGCUAAAACAGGGGUUACUUCAACCUCCGAUUCUGAAGAAGAAGGAGAUGAUCAAGAAGGCAACAGAGGAUUGAGCAUCA
# B17: chr11:130405560:130406128:-|CDS|ENSG00000134917|control|control|control (ssRNA)
# RNA: GGGAGUUCUACAGUCCGACGAUCGCUGGGGGACUGGUCUGAGUGCUCUAGCACCUGCGGGGCCGGCUGGCAGAGGCGAACUGUAGAGUGCAGGGACCCCUCCGGCCAGGCCUCUGCCACCUGCAACAAGGCUCUGAAACCCGACAACAGAGGAUUGAGCAUCA
# B18: chr5:150709129:150709230:-|3pUTR|ENSG00000132912|msi1|FALSE|unique (ssRNA)
# RNA: GGGAGUUCUACAGUCCGACGAUCCACAAAACACUUUGAUCAUAAACUUUUUUCUUCAGAAGCCAAACUAACUUGCAGAAUAAUAGAGCCACUGGUUUAAUGUUUCCUCAAGAUAGGUUUUAGUGUAAGCUAGUAUUCUGUGUGCAACAGAGGAUUGAGCAUCA
# B19: chr16:84177846:84179851:-|three_prime_utr|ENSG00000103168|control|control|control (ssRNA)
# RNA: GGGAGUUCUACAGUCCGACGAUCGCAGAGAGACCUGGGCUCCCUCCCUGCGGCAGAGCCACCCCCUGCACCCGAGUCAGGCCUAGAGGACAAGCUCAGUGAGCGCCUGGGGGAAGCCUGGGCAGGCCGAGGGGCUGCCUGGUGCAACAGAGGAUUGAGCAUCA
# B20: chr1:113706032:113706133:-|CDS|ENSG00000116793|unk|total|mutant (ssRNA)
# RNA: GGGAGUUCUACAGUCCGACGAUCCAAUGCCUAUCAGCAAGGAGCCGGUUAUCAGAUGCUGGGAAAUGUUGUCACUAUUGGAUCCGCAUUUUUUCCAUUCUUACAUCGACUUUUCCGUGAGAAGAGCCUUGACCAACUAAAGUCCAACAGAGGAUUGAGCAUCA
# B21: ENSG00000124766:be:win_3951|3pUTR|ENSG00000124766|bound_else_gene|NA|bound_elsewhere_windowed (ssRNA)
# RNA: GGGAGUUCUACAGUCCGACGAUCGUUUGGGGGAAAAAAAAGAAAAAAUCAUGCCAGCUAAUCAUGUCAAGUUCACUGCCUGUCAGAUUGUUGAUAUAUACCUUCUGUAAAUAACUUUUUUUGAGAAGGAAAUAAAAUCAGCUGCAACAGAGGAUUGAGCAUCA
# B22: ENSG00000198589:be:win_1|CDS|ENSG00000198589|bound_else_gene|NA|bound_elsewhere_windowed (ssRNA)
# RNA: GGGAGUUCUACAGUCCGACGAUCAUGGCUAGCGAAGACAAUCGUGUCCCUUCCCCGCCACCAACAGGUGAUGACGGGGGAGGUGGAGGGAGAGAAGAAACCCCUACUGAAGGGGGUGCAUUGUCUCUGAAACCAGGGCUCCCCCAACAGAGGAUUGAGCAUCA
# Target: T1, UNK ZnF1-6 (called full-length)
# Assay: nsRBNS (natural sequence RNA bind-n-seq); RBNS binding buffer (assumed for nsRBNS): 25 mM Tris pH 7.5, 150 mM KCl, 3 mM MgCl2, 0.01% Triton X-100, 500 ug/ml BSA, 20 U/ml SUPERase-In, 4 C; UNK is unkempt and MSI1 is Musashi-1; names of the RNAs are library labels; protein concentration not given here; high values mean tight binding
row,Binder,binding signal [enrichment R]
1,B1,0.332
2,B2,0.985
3,B3,0.652
4,B4,0.778
5,B5,0.931
6,B6,0.544
7,B7,0.444
8,B8,0.736
9,B9,0.592
10,B10,1.43
11,B11,0.55
12,B12,0.366
13,B13,0.753
14,B14,0.982
15,B15,0.679
16,B16,0.855
17,B17,0.844
18,B18,0.596
19,B19,1.15
20,B20,0.364
21,B21,0.788
22,B22,0.651
